Broadly, the Kd is the concentration at which binding is half-saturated.

Read-outs that look alike come from different tables or passages of the source.

For assay [1], the target named is T1, Recombinant soluble E protein (0.8E-His) from DENV-3 (DENV-3).
T1 construct: also called DENV-3 E protein; DV3

In assay [2] the target is T2, Recombinant soluble E protein (0.8E-His) from DENV-4 (DENV-4).
T2 construct: also called DENV-4 E protein; DV4

The target of assay [3] is T1, Recombinant soluble E protein …. The source holds these as a separate data set.
In assay [4] the target is T3, Recombinant soluble E protein (0.8E-His) from DENV-2 (DENV-2).
T3 construct: also called DENV-2 E protein; DV2

In assay [5] the target is T1, Recombinant soluble E protein …. The source holds these as a separate data set.
Assay [6] has the same target. This is another data set of the same source.

B1: DG_3CH953-SG182/3CL-SK1 (antibody, human IgG1, kappa)
heavy: QVQLVQSGPDVEKPGASVKVSCKASGYTFTSNYIHWVRQAPGQGLEWMGVINPRGGSRRSAQKFQGRITMTRDTSTSTVYMELSSLRSEDTAVYYCARGGRALFYDSYTTPFDGGSWWFDPWGQGSLVTVSSASTKGPSVFPLAPSSKSTSGGTAALGCLVKDYFPEPVTVSWNSGALTSGVHTFPAVLQSSGLYSLSSVVTVPSSSLGTQTYICNVNHKPSNTKVDKRV[human IgG1 Fc omitted here]
light: DIQLTQSPSSLSASVGDRVTFTCQASQDIRKYLNWYQQKPGKAPKLLIYDASNLKTGVPSRFSGSGSGTDFTFTISSLQPEDVATYYCQQFDDLPITFGQGTRLQIKRTVAAPSVFIFPPSDEQLKSGTASVVCLLNNFYPREAKVQWKVDNALQSGNSQESVTEQDSKDSTYSLSSTLTLSKADYEKHKVYACEVTHQGLSSPVTKSFNRGEC
On to B1, for which the Kd came out at 0.985 pM in assay [1], 6200 pM in assay [2], 136 pM in assay [3] and 776 pM in assay [4].

B2: DG_3CH1000-SG182/3CL-SK1 (antibody, human IgG1, kappa)
heavy: QVQLVQSGPDVEKPGASVKVSCKASGYTFTSYYMHWVRQAPGQGLEWMGVINPRGGSRRSAQKFQGRITMTRDTSTSTVYMELSSLRSEDTAVYYCARGGRALFYDSYTTPFDGGSWWFDPWGQGSLVTVSSASTKGPSVFPLAPSSKSTSGGTAALGCLVKDYFPEPVTVSWNSGALTSGVHTFPAVLQSSGLYSLSSVVTVPSSSLGTQTYICNVNHKPSNTKVDKRV[human IgG1 Fc omitted here]
light: DIQLTQSPSSLSASVGDRVTFTCQASQDIRKYLNWYQQKPGKAPKLLIYDASNLKTGVPSRFSGSGSGTDFTFTISSLQPEDVATYYCQQFDDLPITFGQGTRLQIKRTVAAPSVFIFPPSDEQLKSGTASVVCLLNNFYPREAKVQWKVDNALQSGNSQESVTEQDSKDSTYSLSSTLTLSKADYEKHKVYACEVTHQGLSSPVTKSFNRGEC
With B2, in assay [1], the Kd amounted to 3.49 pM.

B3: DG_3CH1047-SG182/3CL-SK1 (antibody, human IgG1, kappa)
heavy: QVQLVQSGPDVEKPGASVKVSCKASGYTFTSYYMHWVRQAPGQGLEWMGVINPRGGSRRSAQKFQGRITMTRDTSTSTVYMELSSLRSEDTAVYYCARGGEALFYDSYTTPFDGGSWWFDPWGQGSLVTVSSASTKGPSVFPLAPSSKSTSGGTAALGCLVKDYFPEPVTVSWNSGALTSGVHTFPAVLQSSGLYSLSSVVTVPSSSLGTQTYICNVNHKPSNTKVDKRV[human IgG1 Fc omitted here]
light: DIQLTQSPSSLSASVGDRVTFTCQASQDIRKYLNWYQQKPGKAPKLLIYDASNLKTGVPSRFSGSGSGTDFTFTISSLQPEDVATYYCQQFDDLPITFGQGTRLQIKRTVAAPSVFIFPPSDEQLKSGTASVVCLLNNFYPREAKVQWKVDNALQSGNSQESVTEQDSKDSTYSLSSTLTLSKADYEKHKVYACEVTHQGLSSPVTKSFNRGEC
notes: also called 3Cam2
In the case of B3, the Kd in assay [5] is less than 100 pM; in assay [6], less than 100 pM; in assay [2], 5610 pM; in assay [4] it was 843 pM.

For the origin of these results see US20190218277A1 (Chugai, published 2019).
